From US5567722A, “Cyanoguanidines as K-channel blockers” (The Upjohn Company, priority 1995, dated 1996)
At least one read-out could not be matched to a standard name with certainty.

Assay: Diuretic screen: 5 h net natriuretic efficacy (urinary Na+ excretion) in rats
Assay type: in vivo, female Harlan Sprague-Dawley rats
[1] = Table IV, rats, IP, net increase above control in urinary Na+ over 5 h divided by total of three doses
[2] = Table III, rats, IP, net increase above control in urinary Na+ over 5 h divided by total of three doses

N#CN=C(Nc1cccnc1)NC1(c2cccc(F)c2F)CCC1 [Compound 48]
5 h Net Natriuretic Efficacy [1]: 33 μEq Na+/mg/kg

CCC(NC(=NC#N)Nc1cccnc1)c1c(F)cccc1F (centres unmarked) [Compound 61]
5 h Net Natriuretic Efficacy [1]: 15 μEq Na+/mg/kg

N#CN=C(Nc1cccnc1)NC(c1ccccc1)C1CCCC1 (centres unmarked) [Compound 18]
5 h Net Natriuretic Efficacy [2]: 2.0 μEq Na+/mg/kg

CCC(NC(=NC#N)Nc1cccnc1)c1cccc(F)c1 (centres unmarked) [Compound 38]
5 h Net Natriuretic Efficacy [1]: 39 μEq Na+/mg/kg

N#CN=C(Nc1cccnc1)N[C@H](CO)c1ccccc1 [Compound 27]
5 h Net Natriuretic Efficacy [2]: 47 μEq Na+/mg/kg

CC[C@H](NC(=NC#N)Nc1cccnc1)c1ccccc1 [Compound 20]
5 h Net Natriuretic Efficacy [2]: -3 μEq Na+/mg/kg

CC(C)(C)C(NC(=NC#N)Nc1cccnc1)c1ccccc1 (centres unmarked) [Compound 13]
5 h Net Natriuretic Efficacy [2]: 28 μEq Na+/mg/kg

Cc1ccccc1C(C)NC(=NC#N)Nc1cccnc1 (centres unmarked) [Compound 14]
5 h Net Natriuretic Efficacy [2]: 21.2 μEq Na+/mg/kg

N#CN=C(Nc1cccnc1)NC(c1ccccc1)C1CC1 (centres unmarked) [Compound 17, N"-Cyano-N-(3-pyridyl)-N'-phenylcyclopropylmethylguanidine]
5 h Net Natriuretic Efficacy [2]: 42.2 μEq Na+/mg/kg

N#CN=C(Nc1cccnc1)NC1(c2ccccc2)CCC1 [Compound 51, N"-Cyano-N-(3-pyridyl)-N'-(1-phenylcyclobutyl)guanidine]
5 h Net Natriuretic Efficacy [1]: 57 μEq Na+/mg/kg

CC(NC(=NC#N)Nc1ccc(N)nc1)c1ccccc1 (centres unmarked) [Compound 36]
5 h Net Natriuretic Efficacy [1]: 13 μEq Na+/mg/kg

CC(NC(=NC#N)Nc1cccnc1)c1ccccc1Cl (centres unmarked) [Compound 26]
5 h Net Natriuretic Efficacy [2]: 6.4 μEq Na+/mg/kg

CCC(NC(=NC#N)Nc1cccnc1)c1ccccc1 (centres unmarked) [Compound 2, N"-Cyano-N-(3-pyridyl)-N'-(1-phenyl)propylguanidine]
5 h Net Natriuretic Efficacy [2]: 38.4 μEq Na+/mg/kg

C[C@@H](NC(=NC#N)Nc1cccnc1)c1ccccc1 [Compound 1, (R)-N"-Cyano-N-(3-pyridyl)-N'-(1-phenyl)ethylguanidine]
5 h Net Natriuretic Efficacy [2]: 51.7 μEq Na+/mg/kg

N#CN=C(Nc1cccnc1)NC1(c2cccc(Br)c2)CCC1 [Compound 31]
5 h Net Natriuretic Efficacy [1]: 40 μEq Na+/mg/kg

CC[C@@H](NC(=NC#N)Nc1cccnc1)c1ccccc1 [Compound 22, (R) N"-Cyano-N-(3-pyridyl)-N'-(1-phenylpropyl)guanidine]
5 h Net Natriuretic Efficacy [2]: 45 μEq Na+/mg/kg

CCN(CC)c1ccc(NC(=NC#N)N[C@H](C)c2ccccc2)cn1 [Compound 33]
5 h Net Natriuretic Efficacy (Table IV, administered orally (footnote b)): 17 μEq Na+/mg/kg

C[C@@H](NC(=NC#N)Nc1ccc(Cl)nc1)c1ccccc1 [Compound 34]
5 h Net Natriuretic Efficacy [1]: 27 μEq Na+/mg/kg

CC[C@@H](NC(=NC#N)Nc1ccc(N)nc1)c1ccccc1 [Compound 44, (R)-N-(6-Amino-3-pyridyl)-N"-cyano-N'-(1-phenylpropyl)guanidine]
5 h Net Natriuretic Efficacy [1]: 60 μEq Na+/mg/kg

C[C@@H](NC(=NC#N)Nc1ccc[n+]([O-])c1)c1ccccc1 [Compound 55, (R)-N"-Cyano-N'-(1-phenylethyl)-N-(3-pyridyl)guanidine, pyridine N-oxide]
5 h Net Natriuretic Efficacy [1]: 27 μEq Na+/mg/kg

CC(NC(=NC#N)Nc1cccnc1)c1cccc(Cl)c1 (centres unmarked) [Compound 25]
5 h Net Natriuretic Efficacy [2]: 38.8 μEq Na+/mg/kg

CCC(NC(=NC#N)Nc1cccnc1)c1cccc(I)c1 (centres unmarked) [Compound 41]
5 h Net Natriuretic Efficacy [1]: 12 μEq Na+/mg/kg

CN(C)c1ccc(NC(=NC#N)N[C@H](CO)c2ccccc2)cn1 [Compound 37]
5 h Net Natriuretic Efficacy [1]: 21 μEq Na+/mg/kg

N#CN=C(Nc1cccnc1)NC1(c2cccc(Cl)c2F)CCC1 [Compound 32]
5 h Net Natriuretic Efficacy [1]: 24 μEq Na+/mg/kg

N#CN=C(Nc1cccnc1)NC1(c2ccccc2)CCCC1 [Compound 11]
5 h Net Natriuretic Efficacy [2]: 46.8 μEq Na+/mg/kg

CC(NC(=NC#N)Nc1cccnc1)c1ccc(Cl)c(Cl)c1 (centres unmarked) [Compound 23]
5 h Net Natriuretic Efficacy [2]: 13.6 μEq Na+/mg/kg

N#CN=C(Nc1cccnc1)NC1(c2cccc(F)c2)CCC1 [Compound 42]
5 h Net Natriuretic Efficacy [1]: 70 μEq Na+/mg/kg

CCC(NC(=NC#N)Nc1ccc(NC(C)=O)nc1)c1ccccc1 (centres unmarked) [Compound 30]
5 h Net Natriuretic Efficacy [1]: 13 μEq Na+/mg/kg

CC(NC(=NC#N)Nc1cccnc1)c1ccccc1 (racemic) [Compound 7, N"-Cyano-N-(3-pyridyl)-N'-(1-phenyl)ethylguanidine]
5 h Net Natriuretic Efficacy [2]: 29.4 μEq Na+/mg/kg

CCC(NC(=NC#N)Nc1cccnc1)c1ccccc1F (centres unmarked) [Compound 43]
5 h Net Natriuretic Efficacy [1]: 48 μEq Na+/mg/kg

CCC(NC(=NC#N)Nc1cccnc1)c1cccc(Cl)c1 (centres unmarked) [Compound 52]
5 h Net Natriuretic Efficacy [1]: 26 μEq Na+/mg/kg

Cc1cccc(C(C)NC(=NC#N)Nc2cccnc2)c1 (centres unmarked) [Compound 15]
5 h Net Natriuretic Efficacy [2]: 10.0 μEq Na+/mg/kg

CNc1ccc(NC(=NC#N)NC(C)c2ccccc2)cn1 (centres unmarked) [Compound 29]
5 h Net Natriuretic Efficacy [1]: 21 μEq Na+/mg/kg

N#CN=C(Nc1cccnc1)NC1(c2ccccc2)CC1 [Compound 63]
5 h Net Natriuretic Efficacy [1]: 30 μEq Na+/mg/kg

CC(C)(NC(=NC#N)Nc1cccnc1)c1ccccc1 [Compound 9]
5 h Net Natriuretic Efficacy [2]: 10 μEq Na+/mg/kg

N#CN=C(Nc1cccnc1)NC1(c2cccc(Cl)c2)CCC1 [Compound 45, N'-[1-(3-Chlorophenyl)cyclobutyl]-N"-cyano-N-(3-pyridyl)guanidine]
5 h Net Natriuretic Efficacy [1]: 52 μEq Na+/mg/kg

CC(NC(=NC#N)Nc1cccnc1)c1cccc(F)c1F (centres unmarked) [Compound 58]
5 h Net Natriuretic Efficacy [1]: 55 μEq Na+/mg/kg

CC(NC(=NC#N)Nc1cccnc1)c1cccc(C(F)(F)F)c1 (centres unmarked) [Compound 21]
5 h Net Natriuretic Efficacy [2]: 9 μEq Na+/mg/kg

COCC(NC(=NC#N)Nc1cccnc1)c1ccccc1 (centres unmarked) [Compound 16]
5 h Net Natriuretic Efficacy [2]: 19 μEq Na+/mg/kg

CCCC(NC(=NC#N)Nc1cccnc1)c1ccccc1 (centres unmarked) [Compound 28]
5 h Net Natriuretic Efficacy [2]: 9.8 μEq Na+/mg/kg

CC(C)C(NC(=NC#N)Nc1cccnc1)c1ccccc1 (centres unmarked) [Compound 12]
5 h Net Natriuretic Efficacy [2]: 35 μEq Na+/mg/kg

C[C@@H](NC(=NC#N)Nc1ccc(N(C)C)nc1)c1ccccc1 [Compound 35]
5 h Net Natriuretic Efficacy [1]: 27 μEq Na+/mg/kg

N#CN=C(Nc1cccnc1)NC1(c2ccccc2)CCCCC1 [Compound 10]
5 h Net Natriuretic Efficacy [2]: 13.0 μEq Na+/mg/kg

N#CN=C(Nc1cccnc1)N[C@@H](CO)c1ccccc1 [Compound 4, (R)-N"-Cyano-N'-(2-hydroxy-1-phenylethyl)-N-(3-pyridyl)guanidine]
5 h Net Natriuretic Efficacy [2]: 20 μEq Na+/mg/kg

CCNc1ccc(NC(=NC#N)N[C@H](C)c2ccccc2)cn1 [Compound 56]
5 h Net Natriuretic Efficacy [1]: 29 μEq Na+/mg/kg

CC(NC(=NC#N)Nc1cccnc1)c1cc(F)cc(F)c1 (centres unmarked) [Compound 40]
5 h Net Natriuretic Efficacy [1]: 32 μEq Na+/mg/kg

C[C@H](NC(=NC#N)Nc1cccnc1)c1ccccc1 [Compound 8]
5 h Net Natriuretic Efficacy [2]: 1.9 μEq Na+/mg/kg

CCC(NC(=NC#N)Nc1ccc[n+]([O-])c1)c1ccccc1 (centres unmarked) [Compound 54, N"-Cyano-N'-(1-phenylpropyl)-N-(3-pyridyl)guanidine, pyridine N-oxide]
5 h Net Natriuretic Efficacy [1]: 16 μEq Na+/mg/kg

N#CN=C(Nc1ccc(N)nc1)NC1(c2ccccc2)CCC1 [Compound 46, N"-Cyano-N-(6-amino-3-pyridyl)-N'-(1-phenylcyclobutyl)guanidine]
5 h Net Natriuretic Efficacy [1]: 81 μEq Na+/mg/kg

CC[C@@H](NC(=NC#N)Nc1ccc(N(C)C)nc1)c1ccccc1 [Compound 53, (R)-N"-Cyano-N'-(1-phenylpropyl)-N-[6-(dimethylamino)-3-pyridyl]guanidine]
5 h Net Natriuretic Efficacy [1]: 31 μEq Na+/mg/kg

COCCCNc1ccc(NC(=NC#N)N[C@H](C)c2ccccc2)cn1 [Compound 57]
5 h Net Natriuretic Efficacy [1]: 16 μEq Na+/mg/kg

CC(NC(=NC#N)Nc1cccnc1)c1cccc(F)c1 (centres unmarked) [Compound 50]
5 h Net Natriuretic Efficacy [1]: 37 μEq Na+/mg/kg

N#CN=C(Nc1cccnc1)NC(c1ccccc1)C1CCC1 (centres unmarked) [Compound 19]
5 h Net Natriuretic Efficacy [2]: 19 μEq Na+/mg/kg

N#CN=C(Nc1cccnc1)NC1(c2ccccc2)CC=CC1 [Compound 3, N"-Cyano-N'-(1-phenylcyclopent-3-enyl)-N-(3-pyridyl)guanidine]
5 h Net Natriuretic Efficacy [2]: 57 μEq Na+/mg/kg

N#CN=C(Nc1ccc(N)nc1)NC1(c2cccc(F)c2)CCC1 [Compound 47]
5 h Net Natriuretic Efficacy [1]: 47 μEq Na+/mg/kg

CC(NC(=NC#N)Nc1cccnc1)c1cc(Cl)ccc1Cl (centres unmarked) [Compound 24]
5 h Net Natriuretic Efficacy [2]: 12 μEq Na+/mg/kg

CCC(NC(=NC#N)Nc1cccnc1)c1cc(F)ccc1F (centres unmarked) [Compound 60]
5 h Net Natriuretic Efficacy [1]: 35 μEq Na+/mg/kg

CCC(NC(=NC#N)Nc1cccnc1)c1cccc(Br)c1 (centres unmarked) [Compound 39]
5 h Net Natriuretic Efficacy [1]: 29 μEq Na+/mg/kg

CC(C)Nc1ccc(NC(=NC#N)N[C@H](C)c2ccccc2)cn1 [Compound 59]
5 h Net Natriuretic Efficacy [1]: 20 μEq Na+/mg/kg
